Tested on: B. cereus spores
Assay: Photodynamic inactivation (PDI) of B. cereus spores, colony-forming units
Format: cell-based, B. cereus (ATCC14579)
Procedure: The bacteria studied in the following examples were B. atrophaeus (ATCC 9372), B. cereus (ATCC14579), B. thuringiensis (ATCC 33740) and B. subtilis (ATCC 6051). Growing bacterial cells were cultivated in brain-heart infusion (BHI) broth at 37° C. Aliquots of the suspension (10^8/mL) were stored at −80° C. and then used for the experiments.
For initial experiments spores of B. atrophaeus and B. cereus were purchased from SGM Biotech, Inc (Bozeman, Mont., USA). For subsequent experiments spores of all species were prepared in the laboratory using sporulation broth for B. atrophaeus and B. subtilis, or sporulation agar (Caipo et al., 2002; Nicholson & Setlow, 1990) for B. cereus and B. thuringiensis. The sporulation medium consisted of 16.0 g nutrient broth (Difco), 2.0 g KCl, 0.5 g MgSO4; 17 g of agar. The pH of the medium was adjusted to 7, then autoclaved and cooled. After cooling 1 ml of 1M […], 1 ml of 0.1 M MnCl2.4H2O, 1 ml of 1 mM FeSO4 and 2 ml 50% glucose were added. For spore purification the mixture of spores and cells was centrifuged at 1300 g for 20 min, washed with SX volume 1 M KCl/0.5 M NaCl, rinsed with sterile deionized water, then washed with 1 M NaCl, and rinsed with sterile deionized water again. Lysozyme (50 μg/mL) was added in the presence of buffer (5× volume Tris Cl, 0.05 M, pH 7 2), and incubated with constant stirring at 4° C. overnight. […]

## Cc1cc2nc3ccc(N(C)C)cc3[s+]c2cc1N.[Cl-] [TBO, Toluidine Blue O]
  effect of tenfold dilution of spore suspension on killing for a given fluence: increase in amount of spore killing

Source: patent US20060223729A1, “Photodynamic inactivation of bacterial spores” (priority 2003, published 2006)
